From publication PMC10320511 come the findings set out here.

Amino acid sequences for entries named in this document (tags omitted).
UniProt Q01371: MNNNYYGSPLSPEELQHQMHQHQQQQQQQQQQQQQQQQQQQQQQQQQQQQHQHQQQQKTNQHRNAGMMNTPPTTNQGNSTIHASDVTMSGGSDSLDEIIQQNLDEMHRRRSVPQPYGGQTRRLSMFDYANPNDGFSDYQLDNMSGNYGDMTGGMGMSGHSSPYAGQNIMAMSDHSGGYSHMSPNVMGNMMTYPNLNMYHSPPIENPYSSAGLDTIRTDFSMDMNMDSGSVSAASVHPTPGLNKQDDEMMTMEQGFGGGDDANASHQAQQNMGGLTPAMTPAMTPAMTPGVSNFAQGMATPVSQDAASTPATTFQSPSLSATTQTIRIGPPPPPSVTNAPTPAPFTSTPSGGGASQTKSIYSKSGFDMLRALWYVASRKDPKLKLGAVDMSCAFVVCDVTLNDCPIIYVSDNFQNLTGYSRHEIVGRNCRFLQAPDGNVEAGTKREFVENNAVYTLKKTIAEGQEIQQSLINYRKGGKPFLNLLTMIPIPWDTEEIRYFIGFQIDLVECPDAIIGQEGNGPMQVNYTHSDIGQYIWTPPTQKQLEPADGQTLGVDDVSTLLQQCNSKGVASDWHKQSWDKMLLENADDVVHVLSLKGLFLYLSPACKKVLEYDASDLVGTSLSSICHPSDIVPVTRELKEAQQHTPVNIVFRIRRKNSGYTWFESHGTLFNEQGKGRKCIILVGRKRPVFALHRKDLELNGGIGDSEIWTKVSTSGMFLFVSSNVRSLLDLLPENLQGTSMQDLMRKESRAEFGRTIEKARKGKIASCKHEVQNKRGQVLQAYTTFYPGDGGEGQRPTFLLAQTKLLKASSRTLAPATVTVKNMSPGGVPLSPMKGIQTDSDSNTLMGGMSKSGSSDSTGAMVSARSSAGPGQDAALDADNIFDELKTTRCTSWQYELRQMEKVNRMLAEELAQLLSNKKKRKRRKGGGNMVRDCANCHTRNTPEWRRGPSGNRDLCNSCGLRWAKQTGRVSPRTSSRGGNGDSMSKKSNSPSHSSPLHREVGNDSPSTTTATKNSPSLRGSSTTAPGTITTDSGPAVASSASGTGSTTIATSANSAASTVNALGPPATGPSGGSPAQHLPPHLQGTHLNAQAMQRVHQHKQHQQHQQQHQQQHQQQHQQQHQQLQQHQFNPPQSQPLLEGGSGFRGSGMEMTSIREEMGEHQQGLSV

Test [1] concerns the target White Collar-1 tagged with V5 (WC-1^V5) (Neurospora crassa) (UniProt Q01371). Put plainly: co-IP; WC-1^V5 pulled down with V5 resin from Neurospora lysate; NaCl in lysis and wash buffers raised to 500 or 1000 mM; Western blot.
Test [2] has the same target. Briefly: co-IP; WC-1^V5 pulled down with V5 resin from Neurospora lysate (light, 25 °C, 24 h); 137 mM NaCl in lysis and wash buffers; Western blot with WC-1, WC-2, FRQ and FRH antibodies.
Test [3] concerns the target T1, FRQ Δ775–800, V5H6-tagged (Neurospora crassa) (UniProt P19970).
T1 sequence: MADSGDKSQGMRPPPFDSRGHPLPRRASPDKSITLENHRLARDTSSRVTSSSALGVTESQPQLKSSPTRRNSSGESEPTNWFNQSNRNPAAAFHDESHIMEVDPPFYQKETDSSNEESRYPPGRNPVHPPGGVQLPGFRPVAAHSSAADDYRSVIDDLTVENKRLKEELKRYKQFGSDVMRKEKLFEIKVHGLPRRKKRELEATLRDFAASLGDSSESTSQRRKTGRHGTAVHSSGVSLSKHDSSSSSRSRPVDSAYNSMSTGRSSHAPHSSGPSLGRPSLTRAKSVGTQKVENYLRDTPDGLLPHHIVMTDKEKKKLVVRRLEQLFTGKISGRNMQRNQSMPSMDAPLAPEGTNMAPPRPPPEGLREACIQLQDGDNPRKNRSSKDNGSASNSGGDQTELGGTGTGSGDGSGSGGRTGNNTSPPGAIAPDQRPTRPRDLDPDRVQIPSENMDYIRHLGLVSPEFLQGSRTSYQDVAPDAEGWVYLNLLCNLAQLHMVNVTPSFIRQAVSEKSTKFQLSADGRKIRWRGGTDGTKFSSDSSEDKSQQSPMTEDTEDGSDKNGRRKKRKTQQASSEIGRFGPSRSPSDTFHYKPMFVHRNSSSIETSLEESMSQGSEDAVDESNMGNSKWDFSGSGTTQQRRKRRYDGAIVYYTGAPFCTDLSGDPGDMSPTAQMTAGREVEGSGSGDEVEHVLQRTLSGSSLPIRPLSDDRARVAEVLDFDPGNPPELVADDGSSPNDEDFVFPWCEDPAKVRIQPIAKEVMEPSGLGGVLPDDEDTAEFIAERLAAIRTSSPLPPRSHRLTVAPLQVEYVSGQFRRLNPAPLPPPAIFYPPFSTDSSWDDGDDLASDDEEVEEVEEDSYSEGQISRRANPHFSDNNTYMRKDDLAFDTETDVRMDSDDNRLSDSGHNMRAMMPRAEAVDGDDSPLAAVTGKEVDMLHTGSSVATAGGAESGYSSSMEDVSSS
Briefly: co-IP; V5H6-tagged FRQ (wild type or mutant) pulled down with V5 agarose from Neurospora lysate (cultures in the light, 25 °C); 50 mM Hepes pH 7.4, 137 mM NaCl, 10% glycerol, 0.4% NP-40; 4 °C, 2 h; Western blot with FRQ, FRH, WC-1 and WC-2 antibodies.

Test [4] deals with T2, FRQ Δ250–310, V5H6-tagged (Neurospora crassa) (UniProt P19970).
T2 sequence: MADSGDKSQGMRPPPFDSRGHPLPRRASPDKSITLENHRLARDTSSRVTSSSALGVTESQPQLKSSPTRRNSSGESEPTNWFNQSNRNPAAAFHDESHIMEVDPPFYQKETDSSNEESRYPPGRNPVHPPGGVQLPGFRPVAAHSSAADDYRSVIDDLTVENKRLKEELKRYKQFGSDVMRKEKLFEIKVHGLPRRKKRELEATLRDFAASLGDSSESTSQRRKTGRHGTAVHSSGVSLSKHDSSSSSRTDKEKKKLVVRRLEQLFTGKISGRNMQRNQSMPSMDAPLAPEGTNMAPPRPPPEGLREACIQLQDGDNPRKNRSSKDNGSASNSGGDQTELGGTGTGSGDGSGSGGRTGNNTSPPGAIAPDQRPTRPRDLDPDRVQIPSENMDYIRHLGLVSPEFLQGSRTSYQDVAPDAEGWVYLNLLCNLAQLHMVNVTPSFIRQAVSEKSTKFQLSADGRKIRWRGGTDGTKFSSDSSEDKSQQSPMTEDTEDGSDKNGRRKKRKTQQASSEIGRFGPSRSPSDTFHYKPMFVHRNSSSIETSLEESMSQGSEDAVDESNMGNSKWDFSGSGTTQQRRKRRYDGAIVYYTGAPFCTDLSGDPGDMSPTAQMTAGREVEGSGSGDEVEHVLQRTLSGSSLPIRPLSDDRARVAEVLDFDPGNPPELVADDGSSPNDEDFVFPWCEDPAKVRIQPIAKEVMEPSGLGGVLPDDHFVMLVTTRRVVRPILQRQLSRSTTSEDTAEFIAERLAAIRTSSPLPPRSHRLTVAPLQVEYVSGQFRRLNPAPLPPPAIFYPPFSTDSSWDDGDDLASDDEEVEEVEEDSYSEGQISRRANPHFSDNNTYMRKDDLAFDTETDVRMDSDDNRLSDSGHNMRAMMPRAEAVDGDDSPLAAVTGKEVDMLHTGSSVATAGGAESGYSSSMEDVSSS
The test is described as above.

These are yes or no findings as the source states them, for the method shown. Binding seen in cells or lysates may run through a third protein. Some entries that bind do so weakly or less than the wild type. For some of these results: Sequences can lack the tags named with a protein.

B1: FRQ-interacting RNA helicase (FRH) (protein, UniProt Q1K502 1-1106)
chain: MDDLFEVFEEQPRAQKKRKASPDVEMADGAAAAAPVANAAAAVTHPQAQAAPAPQKDNIDNNDNNNNNTTTSAVQPTIPNGDAAAAADDVQSPQSPHGLGDNKRRKKTDEAEPIMTDAFQTAESREVTGAQGFAPTEGESIVLSHNIQHQVALPPDLDYEYIPLSEHKPPAEPARTYSFKLDPFQALSVASIEREESVLVSAHTSAGKTVVAEYAIAQCLKKNQRVIYTSPIKALSNQKYRDFQAEFGDVGLMTGDVTINPTASCLVMTTEILRSMLYRGSEIMREVAWVVFDEIHYMRDKIRGVVWEETIILLPDKVRYVFLSATIPNAFQFAEWIAKIHRQACHVVYTDFRPTPLQNYFFPAGGKGILLIVDEKGNFKENNFNQAMAMIEEKKGTDSNDWSAKQKGKGKNKKTNKGGEAADEKADIAKIIKMILKKNFQPVIVFNFSKRECEQMALASSSMKFNAPDEENMVNKVFENALASLSEDDKNLPQISNILPLLRKGIGVHHSGLLPILKETIEILFQEGLIKVLFATETFSIGLNMPARTVVFTQVTKWDGQQRRPLTSSEYIQMAGRAGRRGLDDRGIVIMMVDDKLEPETARAIVVGNQDKLNSAFHLGYNMVLNLLRIEAISPEYMLERCFFQFQNAASVPQLERELISLQQERDAIIIPDESIVKDYYGVRQQLEEYNKDMVFVIQHPQNCLGFFQEGRLIHIKSPSGVDYGWGVLIKHIQRQTPKNGQPPYPEQESYVLDVLLKVSGDFNPKTRGEGPMPEGIMPAGKDSKNARWEVVPCLLNCLRALGQLRVFLPKRLESADEKDGVGKAVDEISRRFPDGIPILDPMENMGINDDSFKKLLRKIEVLESRLVANPLHNSPLLVELWNQYSLKMQLGEQIKEKKKAIARAHSVAQLDELKSRKRVLRRLGFINDAEVVQMKARVACEISSTEGHELLLAELLFNRFFNELSPEICACILSCFIFDEKIETQALKEELAKPFREIQAQARIIAKVSAESKLDVNEDEYVQSLKWQLMETVLAWAQGRPFSEICKMTNVYEGSLIRLFRRLEELLRQMAEAARVMGSEELKDKFELSLSKIRRDIVSFNSLYL
As to B1, the binding entry in test [1] was “no binding (condition: with 500 mM or 1000 mM NaCl)”; in test [2], “binds”; in test [3], “no binding”.

B2: White Collar-2 (WC-2) (protein, UniProt P78714 1-530)
chain: MSHGQPPPGSSMYGFGAMGMGSGMGSGMGSGMGTGMGTGMGTGMSASQMTSDPQDMMSLLDTSVFPGFDGMSMSLDVGDSMSNPFTPVSVPPPLPAGNAGPSHVGVCGGHGAPDQLFSPDDLIATSMSSAGPMIATPTTTTSGPSGGPSSGGGSTLTEFTKRRNWPAKVVEELQDWEHILDANGRIKHVSPSVEPLTGYKPPEIIDLFLRDLIHPDDVGVFTAELNEAIATGSQLRLFYRFRKKDGNWTIFETVGHAHIAAAKFAPNPQNQSPFCQAVFMMARPYPTKNAGLLDSFLEHKIENERLKRRIAELRREEQEEQEESHRTWRMSQEGRSDVTPSDDTATQMGMTPFYIPMNAQADVMMPPPSQPASSLNIALTRENLEGIAGSRPDSIREKMLRYEGNHADTIEMLTGLKYQEGERSHGITTGNASPTLIKGDAGIAIPLDRDPRTGEKKKKIKVAEEYVCTDCGTLDSPEWRKGPSGPKTLCNACGLRWAKKEKKKNANNNNNGGGIGGHNDIHTPMGDHMG
As for B2, the binding result is given as “binds” in test [1], “binds” in test [2], “binds” in test [4] and “no binding” in test [3].
